# Experimental data published in the supplement of paper PMC8728848.
# The other results are listed elsewhere or left out.
# B1: LSECtin (Homo sapiens), Q6UXB4 (protein)
# chain: MDTTRYSKWGGSSEEVPGGPWGRWVHWSRRPLFLALAVLVTTVLWAVILSILLSKASTERAALLDGHDLLRTNASKQTAALGALKEEVGDCHSCCSGTQAQLQTTRAELGEAQAKLMEQESALRELRERVTQGLAEAGRGREDVRTELFRALEAVRLQNNSCEPCPTSWLSFEGSCYFFSVPKTTWAAAQDHCADASAHLVIVGGLDEQGFLTRNTRGRGYWLGLRAVRHLGKVQGYQWVDGVSLSFSHWNQGEPNDAWGRENCVMMLHTGLWNDAPCDSEKDGWICEKRHNC
# Tests used:
# Assay in all cases: glycan array binding signal (z-score within array); higher = stronger binding
# Conditions in all cases: glycan notation: IUPAC condensed, linker removed
# [1] = biological target: Fuc(a1-2)Gal
# Procedure, shortened: (§1)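 Glycan array binding is given as a within-array Z-score, which can be read as non-binding when negative. The arrays, 3228 of them, came from the Consortium for Functional Glycomics database and were retained only where the protein sequence was available. Z-scores were averaged across arrays of the same protein sequence at different concentrations or buffers and across linkers.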
# [2] = biological target: Fuc(a1-2)Gal(b1-3)GalNAc
# Procedure, shortened: as §1
# [3] = biological target: Fuc(a1-2)Gal(b1-3)GalNAc(a1-3)[Fuc(a1-2)]Gal(b1-4)Glc
# Procedure, shortened: as §1
# [4] = biological target: Fuc(a1-2)Gal(b1-3)GalNAc(a1-3)[Fuc(a1-2)]Gal(b1-4)GlcNAc
# Procedure, shortened: as §1
# [5] = biological target: Fuc(a1-2)Gal(b1-3)GalNAc(b1-3)Gal
# Procedure, shortened: as §1
# [6] = biological target: Fuc(a1-2)Gal(b1-3)GalNAc(b1-3)Gal(a1-4)Gal(b1-4)Glc
# Procedure, shortened: as §1
# [7] = biological target: Fuc(a1-2)Gal(b1-3)GalNAc(b1-4)[Neu5Ac(a2-3)]Gal(b1-4)Glc
# Procedure, shortened: as §1
# [8] = biological target: Fuc(a1-2)Gal(b1-3)GlcNAc
# Procedure, shortened: as §1
# [9] = biological target: Fuc(a1-2)Gal(b1-3)GlcNAc(b1-2)Man(a1-3)[Fuc(a1-2)Gal(b1-3)GlcNAc(b1-2)Man(a1-6)]Man(b1-4)GlcNAc(b1-4)GlcNAc
# Procedure, shortened: as §1
# [10] = biological target: Fuc(a1-2)Gal(b1-3)GlcNAc(b1-2)Man(a1-3)[Fuc(a1-2)Gal(b1-3)GlcNAc(b1-2)Man(a1-6)]Man(b1-4)GlcNAc(b1-4)[Fuc(a1-6)]GlcNAc
# Procedure, shortened: as §1
# [11] = biological target: Fuc(a1-2)Gal(b1-3)GlcNAc(b1-3)Gal(b1-4)Glc
# Procedure, shortened: as §1
# [12] = biological target: Fuc(a1-2)Gal(b1-3)GlcNAc(b1-3)GalNAc
# Procedure, shortened: as §1
# [13] = biological target: Fuc(a1-2)Gal(b1-3)GlcNAc(b1-3)[Fuc(a1-2)Gal(b1-3)GlcNAc(b1-6)]GalNAc
# Procedure, shortened: as §1
# [14] = biological target: Fuc(a1-2)Gal(b1-3)GlcNAc(b1-3)[Gal(b1-4)GlcNAc(b1-6)]Gal(b1-4)Glc
# Procedure, shortened: as §1
# [15] = biological target: Fuc(a1-2)Gal(b1-3)GlcNAc(b1-3)[Gal(b1-4)[Fuc(a1-3)]GlcNAc(b1-6)]Gal(b1-4)Glc
# Procedure, shortened: as §1
# [16] = biological target: Fuc(a1-2)Gal(b1-3)GlcNAc(b1-3)[Neu5Ac(a2-6)Gal(b1-4)GlcNAc(b1-6)]Gal(b1-4)Glc
# Procedure, shortened: as §1
# [17] = biological target: Fuc(a1-2)Gal(b1-3)GlcNAc6S
# Procedure, shortened: as §1
# [18] = biological target: Fuc(a1-2)Gal(b1-3)[Fuc(a1-4)]GlcNAc
# Procedure, shortened: as §1
# [19] = biological target: Fuc(a1-2)Gal(b1-3)[Fuc(a1-4)]GlcNAc(b1-2)Man(a1-3)[Fuc(a1-2)Gal(b1-3)[Fuc(a1-4)]GlcNAc(b1-2)Man(a1-3)]Man(b1-4)GlcNAc(b1-4)GlcNAc
# Procedure, shortened: as §1
# [20] = biological target: Fuc(a1-2)Gal(b1-3)[Fuc(a1-4)]GlcNAc(b1-2)Man(a1-3)[Fuc(a1-2)Gal(b1-3)[Fuc(a1-4)]GlcNAc(b1-2)Man(a1-6)]Man(b1-4)GlcNAc(b1-4)GlcNAc
# Procedure, shortened: as §1
# [21] = biological target: Fuc(a1-2)Gal(b1-3)[Fuc(a1-4)]GlcNAc(b1-2)Man(a1-3)[Fuc(a1-2)Gal(b1-3)[Fuc(a1-4)]GlcNAc(b1-2)Man(a1-6)]Man(b1-4)GlcNAc(b1-4)[Fuc(a1-6)]GlcNAc(b1-4)[Fuc(a1-6)]GlcNAc
# Procedure, shortened: as §1
# [22] = biological target: Fuc(a1-2)Gal(b1-3)[Fuc(a1-4)]GlcNAc(b1-3)[Fuc(a1-3)[Gal(b1-4)]GlcNAc(b1-6)]Gal(b1-4)Glc
# Procedure, shortened: as §1
# [23] = biological target: Fuc(a1-2)Gal(b1-3)[Fuc(a1-4)]GlcNAc(b1-3)[Gal(b1-4)GlcNAc(b1-6)]Gal(b1-4)Glc
# Procedure, shortened: as §1
# [24] = biological target: Fuc(a1-2)Gal(b1-4)Fuc(a1-3)]GlcNAc(b1-2)Man(a1-3)[Fuc(a1-2)Gal(b1-4)[Fuc(a1-3)]GlcNAc(b1-2)Man(a1-6)]Man(b1-4)GlcNAc(b1-4)GlcNAc
# Procedure, shortened: as §1
# [25] = biological target: Fuc(a1-2)Gal(b1-4)Glc
# Procedure, shortened: as §1
# [26] = biological target: Fuc(a1-2)Gal(b1-4)Glc6S
# Procedure, shortened: as §1
# [27] = biological target: Fuc(a1-2)Gal(b1-4)GlcNAc
# Procedure, shortened: as §1
# [28] = biological target: Fuc(a1-2)Gal(b1-4)GlcNAc(b1-2)Man
# Procedure, shortened: as §1
# [29] = biological target: Fuc(a1-2)Gal(b1-4)GlcNAc(b1-2)Man(a1-3)[Fuc(a1-2)Gal(b1-4)GlcNAc(b1-2)Man(a1-6)]Man(b1-4)GlcNAc(b1-4)GlcNAc
# Procedure, shortened: as §1
# [30] = biological target: Fuc(a1-2)Gal(b1-4)GlcNAc(b1-2)Man(a1-3)[Fuc(a1-2)Gal(b1-4)GlcNAc(b1-2)Man(a1-6)]Man(b1-4)GlcNAc(b1-4)[Fuc(a1-6)]GlcNAc
# Procedure, shortened: as §1
binder,measurement,setting,value
B1,glycan array binding signal (z-score),[1],-0.224
same,glycan array binding signal (z-score),[2],-0.159
same,glycan array binding signal (z-score),[3],-0.135
same,glycan array binding signal (z-score),[4],-0.136
same,glycan array binding signal (z-score),[5],0.07
same,glycan array binding signal (z-score),[6],-0.184
same,glycan array binding signal (z-score),[7],0.083
same,glycan array binding signal (z-score),[8],-0.21
same,glycan array binding signal (z-score),[9],0.42
same,glycan array binding signal (z-score),[10],-0.124
same,glycan array binding signal (z-score),[11],-0.196
same,glycan array binding signal (z-score),[12],-0.139
same,glycan array binding signal (z-score),[13],-0.131
same,glycan array binding signal (z-score),[14],-0.14
same,glycan array binding signal (z-score),[15],-0.276
same,glycan array binding signal (z-score),[16],-0.13
same,glycan array binding signal (z-score),[17],-0.125
same,glycan array binding signal (z-score),[18],-0.192
same,glycan array binding signal (z-score),[19],-0.107
same,glycan array binding signal (z-score),[20],2.05
same,glycan array binding signal (z-score),[21],-0.127
same,glycan array binding signal (z-score),[22],-0.119
same,glycan array binding signal (z-score),[23],-0.131
same,glycan array binding signal (z-score),[24],-0.123
same,glycan array binding signal (z-score),[25],-0.195
same,glycan array binding signal (z-score),[26],0.134
same,glycan array binding signal (z-score),[27],-0.092
same,glycan array binding signal (z-score),[28],-0.135
same,glycan array binding signal (z-score),[29],-0.098
same,glycan array binding signal (z-score),[30],-0.139
